The results in this text go back to publication PMC9303552 (Angewandte Chemie (International Ed. in English), 2022).

In the assay the target is T1, GST-CHIP (carboxyl terminus of Hsp70 interacting protein, full length) (human, UniProt Q9UNE7 1-303).
T1 sequence (looked up): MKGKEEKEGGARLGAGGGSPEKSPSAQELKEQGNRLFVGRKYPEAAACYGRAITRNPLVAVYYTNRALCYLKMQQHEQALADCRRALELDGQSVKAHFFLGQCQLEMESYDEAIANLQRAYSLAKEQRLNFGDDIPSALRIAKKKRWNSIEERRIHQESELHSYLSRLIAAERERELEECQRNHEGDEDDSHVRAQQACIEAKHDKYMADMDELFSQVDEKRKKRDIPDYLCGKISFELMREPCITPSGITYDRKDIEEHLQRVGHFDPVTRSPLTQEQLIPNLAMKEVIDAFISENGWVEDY
Kind of assay: NMR titration.

B1: […] (domain or fragment)
chain: not shown
Consider B1, for which the binding result is “binds”.
